# Laboratory results reported in the supplement of paper PMC8728848.
# The other results are listed elsewhere or left out.
# B1: Na-CTL-1 (Necator americanus) (protein)
# chain: MQRSFLLLLVVLAGAWAVNTTIPLKLMGGFTPMKYQCVGRVSDIWADVLFLIESSDMITKSGFRQVIAFITATTKKMTIGQDEKQTRVGFITYGEEAKLIYDLDHWRSTEKLSDLVQKIPYVKSSGTNIAAAIALANKVFNSPTHRPNVPKVMVIVANGLKKGSQNPIPVATAFKDFGGIIITIEYTQYDNIQVPILKKIASEGYNIRSNDEDFSVRTLTNMLLQANCFCPDHYVPFRVNNPEFGCFVTAKIPSMWRDAAEMCRAVEEGKLVKVENEEKAAFIMKLVGPKKEAWIGLRYYGNKFQWTDGTKLNADDFNLWPEDIKELNGPHCVSMYQDQKDKKYYWRAGKCLEDMRYVCEVQPCSASNYCSEPVFMYRQKHRALLPAPPPPPN
# Assays:
# Test in all cases: glycan array binding signal (z-score within array); higher = stronger binding
# Conditions in all cases: glycan notation: IUPAC condensed, linker removed
# Neu5Ac(a2-3)GalNAc = target: Neu5Ac(a2-3)GalNAc
# Summary of the method: (§1)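 Columns mapping to the same glycan were averaged after glycan names were converted to IUPAC-condensed notation. The data come from 3228 arrays in the Consortium for Functional Glycomics database, limited to those with an available protein sequence. Binding is reported as a within-array Z-score averaged across arrays of one protein sequence and across linkers.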
# [1] = target: Neu5Ac(a2-3)GalNAc(b1-4)GlcNAc
# Summary of the method: as §1
# [2] = target: Neu5Ac(a2-3)[GalNAc(b1-4)]Gal(b1-4)Glc
# Summary of the method: as §1
# [3] = target: Neu5Ac(a2-3)[GalNAc(b1-4)]Gal(b1-4)GlcNAc
# Summary of the method: as §1
# [4] = target: Neu5Ac(a2-3)[GalNAc(b1-4)]Gal(b1-4)GlcNAc(b1-3)GalNAc
# Summary of the method: as §1
# [5] = target: Neu5Ac(a2-3)[Neu5Ac(a2-6)]GalNAc
# Summary of the method: as §1
# Neu5Ac(a2-6)Gal = target: Neu5Ac(a2-6)Gal
# Summary of the method: as §1
# [6] = target: Neu5Ac(a2-6)Gal(b1-3)GlcNAc(b1-3)[Gal(b1-4)GlcNAc(b1-6)]Gal(b1-4)Glc
# Summary of the method: as §1
# Neu5Ac(a2-6)Gal(b1-4)Glc = target: Neu5Ac(a2-6)Gal(b1-4)Glc
# Summary of the method: as §1
# [7] = target: Neu5Ac(a2-6)Gal(b1-4)GlcNAc
# Summary of the method: as §1
# [8] = target: Neu5Ac(a2-6)Gal(b1-4)GlcNAc(b1-2)Man
# Summary of the method: as §1
# [9] = target: Neu5Ac(a2-6)Gal(b1-4)GlcNAc(b1-2)Man(a1-3)Man(b1-4)GlcNAc(b1-4)GlcNAc
# Summary of the method: as §1
# [10] = target: Neu5Ac(a2-6)Gal(b1-4)GlcNAc(b1-2)Man(a1-3)[Gal(b1-4)GlcNAc(b1-2)Man(a1-6)]Man(b1-4)GlcNAc(b1-4)GlcNAc
# Summary of the method: as §1
# [11] = target: Neu5Ac(a2-6)Gal(b1-4)GlcNAc(b1-2)Man(a1-3)[GlcNAc(b1-2)Man(a1-6)]Man(b1-4)GlcNAc(b1-4)GlcNAc
# Summary of the method: as §1
# [12] = target: Neu5Ac(a2-6)Gal(b1-4)GlcNAc(b1-2)Man(a1-3)[GlcNAc(b1-4)][Neu5Ac(a2-6)Gal(b1-4)GlcNAc(b1-2)Man(a1-6)]Man(b1-4)GlcNAc(b1-4)GlcNAc
# Summary of the method: as §1
# [13] = target: Neu5Ac(a2-6)Gal(b1-4)GlcNAc(b1-2)Man(a1-3)[Man(a1-6)]Man(b1-4)GlcNAc(b1-4)GlcNAc
# Summary of the method: as §1
# [14] = target: Neu5Ac(a2-6)Gal(b1-4)GlcNAc(b1-2)Man(a1-3)[Neu5Ac(a2-3)Gal(b1-4)GlcNAc(b1-2)Man(a1-6)]Man(b1-4)GlcNAc(b1-4)GlcNAc
# Summary of the method: as §1
# [15] = target: Neu5Ac(a2-6)Gal(b1-4)GlcNAc(b1-2)Man(a1-3)[Neu5Ac(a2-6)Gal(b1-4)GlcNAc(b1-2)Man(a1-6)]Man(b1-4)GlcNAc(b1-4)GlcNAc
# Summary of the method: as §1
# [16] = target: Neu5Ac(a2-6)Gal(b1-4)GlcNAc(b1-2)Man(a1-3)[Neu5Ac(a2-6)Gal(b1-4)GlcNAc(b1-2)Man(a1-6)]Man(b1-4)GlcNAc(b1-4)[Fuc(a1-6)]GlcNAc
# Summary of the method: as §1
# [17] = target: Neu5Ac(a2-6)Gal(b1-4)GlcNAc(b1-2)Man(a1-6)Man(b1-4)GlcNAc(b1-4)GlcNAc
# Summary of the method: as §1
# [18] = target: Neu5Ac(a2-6)Gal(b1-4)GlcNAc(b1-2)Man(a1-6)[Gal(b1-4)GlcNAc(b1-2)Man(a1-3)]Man(b1-4)GlcNAc(b1-4)GlcNAc
# Summary of the method: as §1
# [19] = target: Neu5Ac(a2-6)Gal(b1-4)GlcNAc(b1-2)Man(a1-6)[GlcNAc(b1-2)Man(a1-3)]Man(b1-4)GlcNAc(b1-4)GlcNAc
# Summary of the method: as §1
# [20] = target: Neu5Ac(a2-6)Gal(b1-4)GlcNAc(b1-2)Man(a1-6)[Man(a1-3)]Man(b1-4)GlcNAc(b1-4)GlcNAc
# Summary of the method: as §1
# [21] = target: Neu5Ac(a2-6)Gal(b1-4)GlcNAc(b1-2)[Neu5Ac(a2-6)Gal(b1-4)GlcNAc(b1-4)]Man(a1-3)[GlcNAc(b1-4)][Neu5Ac(a2-6)Gal(b1-4)GlcNAc(b1-2)[Neu5Ac(a2-6)Gal(b1-4)GlcNAc(b1-6)]Man(a1-6)]Man(b1-4)GlcNAc(b1-4)GlcNAc
# Summary of the method: as §1
# [22] = target: Neu5Ac(a2-6)Gal(b1-4)GlcNAc(b1-2)[Neu5Ac(a2-6)Gal(b1-4)GlcNAc(b1-4)]Man(a1-3)[GlcNAc(b1-4)][Neu5Ac(a2-6)Gal(b1-4)GlcNAc(b1-4)Man(a1-6)]Man(b1-4)GlcNAc(b1-4)GlcNAc
# Summary of the method: as §1
# [23] = target: Neu5Ac(a2-6)Gal(b1-4)GlcNAc(b1-2)[Neu5Ac(a2-6)Gal(b1-4)GlcNAc(b1-6)]Man(a1-6)[Neu5Ac(a2-6)Gal(b1-4)GlcNAc(b1-2)Man(a1-3)][GlcNAc(b1-4)]Man(b1-4)GlcNAc(b1-4)GlcNAc
# Summary of the method: as §1
# [24] = target: Neu5Ac(a2-6)Gal(b1-4)GlcNAc(b1-3)Gal(b1-3)GlcNAc
# Summary of the method: as §1
# [25] = target: Neu5Ac(a2-6)Gal(b1-4)GlcNAc(b1-3)Gal(b1-4)GlcNAc
# Summary of the method: as §1
# [26] = target: Neu5Ac(a2-6)Gal(b1-4)GlcNAc(b1-3)Gal(b1-4)GlcNAc(b1-2)Man(a1-3)[Neu5Ac(a2-6)Gal(b1-4)GlcNAc(b1-3)Gal(b1-4)GlcNAc(b1-2)Man(a1-6)]GalNAc
# Summary of the method: as §1
# [27] = target: Neu5Ac(a2-6)Gal(b1-4)GlcNAc(b1-3)Gal(b1-4)GlcNAc(b1-3)Gal(b1-4)GlcNAc
# Summary of the method: as §1
# [28] = target: Neu5Ac(a2-6)Gal(b1-4)GlcNAc(b1-3)Gal(b1-4)GlcNAc(b1-3)Gal(b1-4)GlcNAc(b1-2)Man(a1-3)[Neu5Ac(a2-6)Gal(b1-4)GlcNAc(b1-3)Gal(b1-4)GlcNAc(b1-3)Gal(b1-4)GlcNAc(b1-2)Man(a1-6)]GalNAc
# Summary of the method: as §1
# [29] = target: Neu5Ac(a2-6)Gal(b1-4)GlcNAc(b1-3)Gal(b1-4)GlcNAc(b1-3)GalNAc
# Summary of the method: as §1
# [30] = target: Neu5Ac(a2-6)Gal(b1-4)GlcNAc(b1-3)Gal(b1-4)GlcNAc(b1-3)[Neu5Ac(a2-6)Gal(b1-4)GlcNAc(b1-3)Gal(b1-4)GlcNAc(b1-6)]GalNAc
# Summary of the method: as §1
# [31] = target: Neu5Ac(a2-6)Gal(b1-4)GlcNAc(b1-3)Gal(b1-4)GlcNAc(b1-6)[Gal(b1-3)]GalNAc
# Summary of the method: as §1
# [32] = target: Neu5Ac(a2-6)Gal(b1-4)GlcNAc(b1-3)Gal(b1-4)[Fuc(a1-3)]GlcNAc(b1-3)Gal(b1-4)[Fuc(a1-3)]GlcNAc
# Summary of the method: as §1
# [33] = target: Neu5Ac(a2-6)Gal(b1-4)GlcNAc(b1-3)GalNAc
# Summary of the method: as §1
# [34] = target: Neu5Ac(a2-6)Gal(b1-4)GlcNAc(b1-3)[Neu5Ac(a2-6)Gal(b1-4)GlcNAc(b1-6)]GalNAc
# Summary of the method: as §1
# [35] = target: Neu5Ac(a2-6)Gal(b1-4)GlcNAc(b1-6)GalNAc
# Summary of the method: as §1
# [36] = target: Neu5Ac(a2-6)Gal(b1-4)GlcNAc(b1-6)[Gal(b1-3)GlcNAc(b1-3)]Gal(b1-4)Glc
# Summary of the method: as §1
# [37] = target: Neu5Ac(a2-6)Gal(b1-4)GlcNAc(b1-6)[Gal(b1-3)]GalNAc
# Summary of the method: as §1
# [38] = target: Neu5Ac(a2-6)Gal(b1-4)GlcNAc6S
# Summary of the method: as §1
# Neu5Ac(a2-6)GalNAc = target: Neu5Ac(a2-6)GalNAc
# Summary of the method: as §1
# [39] = target: Neu5Ac(a2-6)GalNAc(b1-4)GlcNAc
# Summary of the method: as §1
# [40] = target: Neu5Ac(a2-6)GalNAc(b1-4)GlcNAc6S
# Summary of the method: as §1
# [41] = target: Neu5Ac(a2-6)GlcNAc(b1-4)GlcNAc
# Summary of the method: as §1
binder,measurement,setting,value
B1,glycan array binding signal (z-score),Neu5Ac(a2-3)GalNAc,-0.442
same,glycan array binding signal (z-score),[1],0.55
same,glycan array binding signal (z-score),[2],-0.665
same,glycan array binding signal (z-score),[3],-0.222
same,glycan array binding signal (z-score),[4],-0.27
same,glycan array binding signal (z-score),[5],-0.451
same,glycan array binding signal (z-score),Neu5Ac(a2-6)Gal,1.45
same,glycan array binding signal (z-score),[6],-0.757
same,glycan array binding signal (z-score),Neu5Ac(a2-6)Gal(b1-4)Glc,-0.543
same,glycan array binding signal (z-score),[7],-0.245
same,glycan array binding signal (z-score),[8],-0.485
same,glycan array binding signal (z-score),[9],-0.008
same,glycan array binding signal (z-score),[10],-0.425
same,glycan array binding signal (z-score),[11],-0.454
same,glycan array binding signal (z-score),[12],-0.05
same,glycan array binding signal (z-score),[13],-0.343
same,glycan array binding signal (z-score),[14],0.359
same,glycan array binding signal (z-score),[15],0.264
same,glycan array binding signal (z-score),[16],0.041
same,glycan array binding signal (z-score),[17],-0.384
same,glycan array binding signal (z-score),[18],-0.448
same,glycan array binding signal (z-score),[19],-0.648
same,glycan array binding signal (z-score),[20],-0.294
same,glycan array binding signal (z-score),[21],-0.381
same,glycan array binding signal (z-score),[22],-0.144
same,glycan array binding signal (z-score),[23],0.04
same,glycan array binding signal (z-score),[24],-0.379
same,glycan array binding signal (z-score),[25],-0.169
same,glycan array binding signal (z-score),[26],-0.092
same,glycan array binding signal (z-score),[27],-0.417
same,glycan array binding signal (z-score),[28],1.11
same,glycan array binding signal (z-score),[29],-0.447
same,glycan array binding signal (z-score),[30],-0.37
same,glycan array binding signal (z-score),[31],-0.555
same,glycan array binding signal (z-score),[32],-0.049
same,glycan array binding signal (z-score),[33],-0.617
same,glycan array binding signal (z-score),[34],-0.117
same,glycan array binding signal (z-score),[35],0.118
same,glycan array binding signal (z-score),[36],-0.395
same,glycan array binding signal (z-score),[37],0.22
same,glycan array binding signal (z-score),[38],-0.168
same,glycan array binding signal (z-score),Neu5Ac(a2-6)GalNAc,-0.234
same,glycan array binding signal (z-score),[39],-0.138
same,glycan array binding signal (z-score),[40],-0.352
same,glycan array binding signal (z-score),[41],0.251
